# Measured values published in the supplement of paper PMC3334620.
# Whole data set: some 33,000 sequences, median “E-score (-0.5 to 0.5)” near -0.017, cut for the highest 2% near 0.3. This is one part of the list.
# Molecular target: T1, Sut1 (UniProt P53032)
# T1 sequence: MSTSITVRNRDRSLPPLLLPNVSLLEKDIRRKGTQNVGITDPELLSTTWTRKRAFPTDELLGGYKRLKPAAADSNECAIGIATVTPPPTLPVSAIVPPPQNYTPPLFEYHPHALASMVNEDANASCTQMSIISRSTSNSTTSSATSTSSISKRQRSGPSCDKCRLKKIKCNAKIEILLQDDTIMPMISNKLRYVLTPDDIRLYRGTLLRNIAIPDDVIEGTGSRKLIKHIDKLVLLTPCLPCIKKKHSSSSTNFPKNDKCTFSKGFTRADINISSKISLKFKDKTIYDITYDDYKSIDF
# Assay: PBM E-score (8-mer binding enrichment) (E-score (-0.5 to 0.5)); higher = stronger / more preferred TF binding; most listed sequences are background and not binding sites
# Settings: protein concentration: 200 nM; construct: GST-full length
# In short: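 Yeast transcription factors, full-length or as DNA-binding domains, were expressed with a GST tag using PURExpress in vitro transcription/translation. At about 100-200 nM they were applied to universal all-10-mer Agilent arrays, double-stranded by primer extension on fresh or once-stripped slides. Fluorescent anti-GST detected bound protein, and masliner normalised the scans. E-scores for ungapped eight-base words, pooled with reverse complements, came from the Universal PBM Analysis Suite.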
row,Sequence,PBM E-score
1,AAGGTCCG,0.407
2,GATCGTAC,-0.0542
3,ACCACCTC,-0.052
4,TGGCCAAA,-0.0258
5,CCCTACAA,0.0572
6,GGAGGGTA,-0.187
7,GGCAAAAA,0.0677
8,AAAACGCG,0.0084
9,AGTCGTCA,-0.0673
10,ACATCTCT,-0.036
11,CTAGCTTC,-0.0205
12,AACATTTG,-0.0993
13,ACGAGTAC,-0.096
14,CCCACATC,-0.125
15,CAACCGTG,-0.0424
16,AAGGAATA,0.0336
17,CGGCGGGA,-0.235
18,CACGCCCA,-0.104
19,ATACGCCA,-0.135
20,AGAGGAGG,-0.182
21,AATTTTGG,0.12
22,AAATAACC,0.115
23,TCGTATAA,0.238
24,CCAAAGAG,0.0616
25,GAGGTGAA,0.0586

row,Sequence,PBM E-score
1,GCTTCAAC,-0.0669
2,CGTCGAAA,0.11
3,GGCCGAAC,0.0161
4,CCCTCCGG,0.00905
5,GCATGTCA,-0.0214
6,CTCGTCAA,-0.0181
7,CTGTCCCA,-0.336
8,GAGCCGCC,-0.0201
9,AGTTATAC,0.208
10,ACCGAGAC,-0.135
11,ACTAAGAC,-0.0184
12,GTTCGCGA,0.0195
13,GAATCGTA,0.0897
14,AGCTTTAA,0.121
15,GAGAGCAA,0.0372
16,GCTAAACC,-0.0582
17,AGATTACA,0.0344
18,GGTCAACC,-0.0856
19,CCTCAGCC,-0.259
20,ACCCGGAG,0.416
21,GAACTTGC,-0.0387
22,CTTCGATA,0.213
23,GAGGATTA,-0.00884
24,GCCGACAC,-0.265
25,GGCAGTAA,-0.076

row,Sequence,PBM E-score
1,GCAGCACA,-0.1
2,AAACCAAA,0.167
3,ACTGTAAA,0.146
4,TGACCGAA,0.0569
5,ATGGGTAG,-0.31
6,CATAAGAC,0.0803
7,CACGCTTA,0.0659
8,AGGCTAAT,0.0798
9,AATGCTGT,-0.153
10,GCCTGCCA,-0.134
11,CATGTACC,-0.234
12,CGGGGGTA,-0.0332
13,AGTGTGCC,-0.134
14,CCCGAAAA,0.177
15,AGCCAGCC,-0.194
16,GTCAACAA,0.00063
17,AAATAGTA,0.228
18,ACTGTCTG,-0.11
19,CCAAAACC,-0.0129
20,CCAGCGAA,0.00997
21,CAGGTGAA,-0.0804
22,CAGATCCA,0.02
23,CTATCGAG,-0.152
24,GGTCACCA,-0.342
25,CCGTACTC,0.0695

row,Sequence,PBM E-score
1,GCCGCCTA,-0.287
2,ACCAACAT,0.0524
3,CTGTGTAC,0.00938
4,AGTTATCG,0.192
5,AAGCTAAT,0.102
6,CGTGGGGC,-0.272
7,CGTTACGA,0.114
8,GCATGCGA,0.0246
9,GCCGTGAC,-0.0654
10,GGTTCTGA,-0.075
11,GATTTCAA,0.147
12,TGATAAAA,0.283
13,ATGATTAG,0.109
14,GGCTACCA,-0.0678
15,AGCCACCT,-0.248
16,ATAGGACG,-0.114
17,AATCAAGA,0.0025
18,TAAAAGTA,0.225
19,ATGGCCCA,-0.102
20,CCCCTCCC,-0.301
21,CGTGACAA,-0.15
22,CTTCCCGA,0.0268
23,GGAGATAC,0.0832
24,ATCTTGAG,0.00289
25,GGGACGAA,-0.246

row,Sequence,PBM E-score
1,CAGGGCGA,-0.0978
2,AACGCATT,0.11
3,ACTGACCG,-0.108
4,CATCTTGA,-0.0585
5,ACGTAACC,-0.115
6,GGACATTA,0.222
7,GGATGGTA,0.0953
8,CCCGGTGA,-0.171
9,CAATGATG,0.0603
10,ATCGACTC,-0.114
11,AGTCATCA,-0.123
12,AGCCCAAC,-0.13
13,CGTCGCAG,-0.147
14,TAGAGCGA,-0.0705
15,GGGTGTCA,-0.0836
16,AGAGTTTG,0.0735
17,TACGCCTA,-0.0462
18,AAACCTGC,-0.0637
19,CGTCACCA,-0.0749
20,AATAATGC,0.24
21,CGGCAACA,0.0712
22,CCCCGACC,-0.142
23,ACTAAAAC,0.159
24,TACGAAAA,0.167
25,AGCTGTCC,-0.15

row,Sequence,PBM E-score
1,CATCAAAA,0.13
2,ACGTTTCG,0.0915
3,ACAGATAT,0.0244
4,AAACTAAG,0.242
5,ATCATCAT,0.0766
6,GAATAGGA,0.128
7,GTTCGCCA,-0.14
8,AAAGGACT,-0.054
9,GCCCGCAA,-0.0979
10,ATGTAAAC,0.147
11,ACTCCCGC,-0.0488
12,ACACGCCA,-0.133
13,CGGAGCAA,0.311
14,CTCTTACA,0.0424
15,CGGATCTA,0.0914
16,ATTGGCGC,-0.145
17,TCATTTCA,0.164
18,CAAATGTC,-0.117
19,CTGAGAAC,-0.162
20,AAAGGGCC,-0.16
21,CTGGGAAG,-0.155
22,CACTCGAC,-0.0164
23,GGACAAAA,0.274
24,CGGCATTC,0.0158
25,GGGGTATA,-0.201

row,Sequence,PBM E-score
1,AGCCCACA,-0.186
2,ACATGGAC,0.0532
3,ATGCACCC,-0.0946
4,CTTCTGAA,-0.0253
5,CCGCGACG,-0.101
6,AAGTTAAA,0.229
7,ATAGGTAG,-0.0143
8,ACATGGCG,-0.245
9,TAATCTCA,0.116
10,GCTTGCAA,0.123
11,ACGGGCTA,-0.104
12,ACGATAAG,0.122
13,AATTCTAC,0.157
14,CGGGACGA,-0.0871
15,ACTTAAGC,-0.0646
16,AAAAAGAG,0.0874
17,AAGTCCAG,0.0358
18,GCGAATAA,0.0539
19,AGACCGAG,0.128
20,GGAATGGA,-0.0245
21,CCAGGGCC,-0.371
22,CCTTCGAG,-0.047
